Measured values taken from patent publication US12551573B2, “Compositions and methods for the targeting of PCSK9” (Scribe Therapeutics Inc., priority 2022, dated 2026).
Positions count from the first letter of the chain named. Like-named read-outs stand apart in the source and are kept apart here.

B1: DOMAIN_6577 (protein, listed as Terrapene carolina)
chain: FQGLVTFEEVAVYFTREEGALLDPTQRALYRDVMQENYETVVLLGKESFSKPDVISQLERGEEPWVPDLQGSEKERPEENF
B2: DOMAIN_6595 (protein, listed as Terrapene carolina)
chain: AQGPVTFEEVAVYFTREEGALLDPTQRALYRDVMQENYETVVLLGFPVSKPDVISQLEQGEEPWIPDLQGSEKEVLPRAAC
B3: DOMAIN_6599 (protein, listed as Terrapene carolina)
chain: FQMPVTFEEVAVYFTQGQGALLDPAQRALYRDVMQDNYEMVTSLGFPIPKPELIARLERGEEPWVPDLQACEERRLPRCTR
B4: DOMAIN_5463 (protein, listed as Aotus trivirgatus)
chain: MAAAALRLPAQGTVTFEDVAVKFSQEEWSLLSEAQRCLYHDVMLENLALISSLGCWYGANDETPSKQTLSIQQQSPLRSHW
B5: DOMAIN_6866 (protein, listed as Alligator mississippiensis)
chain: AQGPVTFEDVAVYFSAEEWQELAGWQRELYRDVMMDTYELVASLGPAGLKPEVVSKLERGEEPHQPARSRESPRAPLPVLL
B6: DOMAIN_6936 (protein, listed as Callipepla squamata)
chain: EPVSFEEVAVYFSREEWALLDPAQRALYWDVMLETYECVASLAPLPGPKPMVISLLEEGEEPWIPDVGSPEAVAGDVSPGE
B7: DOMAIN_6970 (protein, listed as Phasianus colchicus)
chain: CQEPVSFAQVAVYFSREEWALLDPAQRALYRDVMLETYQCVASLAPLPAHKPMVISLLEGGEDPWIPDVRSPEAVPGDLSP
B8: DOMAIN_7000 (protein, listed as Phasianus colchicus)
chain: B7 chain with H50P, V54L, I66V, R70C
B9: DOMAIN_6248 (protein, listed as Saimiri boliviensis)
chain: SVTFEDVAVNFSLEEWNLLNEAQRCLYRDVMLETLTLISSLGAPPHTLFPARACGPEAPPSRHCPRPSLCLSLSPLHPTGV
B10: DOMAIN_7123 (protein)
chain: DRVKFTFSDVAVYFSEEEWQLLEEQQKELYRNVMKENYTTLTSLGYTTVKPDVISKIEQGKQPSVSSPSGSKGRRAVGRPT
modifications: Microcaecilia unicolor
B11: DOMAIN_7328 (protein, listed as Terrapene carolina)
chain: MPVTFEEVAVYFTQGQGALLDPAQRALYRDVMQENYETVTSLGFPIPKPELIARLERGEEPWVPDLQACKERRLPRCTRTG
B12: DOMAIN_7365 (protein)
chain: QVPVTFEDIAVSFSQEEWKYLDEGQKNLYWEVMKENYETLISLADSEVEQEDKRAKNREECPMLWGLIPRQSRKNSEKVSW
modifications: Microcaecilia unicolor
B13: DOMAIN_7480 (protein, listed as Gopherus agassizii)
chain: MPVTFEDVAVYFTQGQGALLDPTQRALYRDVMQENYETVTSLGKSVKGFPLAKPDLITRLERGEEPWVSDLQATGDERMSE
B14: DOMAIN_7510 (protein, listed as Gopherus agassizii)
chain: LEGLVTFEEVAVYFTESEWSLLDPAQRALYRDVMEENYENVTSLGFPVSKPDVISWLERGEDPWVPDLQDPEKRETLREAC
B15: DOMAIN_7534 (protein, listed as Gopherus agassizii)
chain: B2 chain with A1K, Q2H, G19W, T40M, P47L, V48N, W64C, P66V
B16: DOMAIN_7553 (protein, listed as Gopherus agassizii)
chain: FQMPVTFEEVAVYFTQGQGALLDPAQRALYRDVMQENYKMVTSLGFPLPKPELISRLEQGEEPWVPDLQACEERESLSGNH
B17: DOMAIN_7641 (protein, listed as Gallus gallus)
chain: B7 chain with C1L, Q9E, S43W, H50P, M53G, V54L
B18: DOMAIN_7653 (protein, listed as Gallus gallus)
chain: AREPVSFVEVAVYFSREEWALLDPAQRALYRDVMLETYESVASLGPFPAPKPVVISLLEGGDDPWIPDVHSPEAVSGDFSP
B19: DOMAIN_7678 (protein)
chain: VPVTFEDVAVRFSAEEWEILEGWQKELHKEVMEENYQLLISLGQPVPTLALLALTAEREAAGGQIRSVSGERELASKGGSS
modifications: Chelonia mydas
B20: DOMAIN_7711 (protein, listed as Columba livia)
chain: GKMSVTFEDVALYFSPEEWAKLSGCQRQLYQEVMLENYQMVASLGWANVKPEIICKMEREETPCVPDVPGKQQRHQSPVPV
B21: DOMAIN_7745 (protein)
chain: LQEPVSFAEVAVCFSREEWALLDPAQRVLYRDVMLETYQCVASLASLLTPKPVLISLLEGGEEPWIPDVRSPEATPGDLSP
modifications: Meleagris gallopavo
B22: DOMAIN_7750 (protein, listed as Columba livia)
chain: B20 chain with Q31R, N48T, P66L, V68P, K71E, R74M, V81A
B23: DOMAIN_6802 (protein, listed as Pantherophis guttatus)
chain: QGSVSFEDVAVYFTEEEWALLDSSQRALHREVMLENSRNLAAVGYGQEHKNYQEPSLALFQSEERMLGIQRVLQKTRRSCL
B24: DOMAIN_7824 (protein, listed as Columba livia)
chain: B20 chain with Q31R, V49I, P63L, D67A, V68P, G70R, K71E, Q72W, H75D, V81A
B25: DOMAIN_7850 (protein, listed as Terrapene carolina)
chain: B3 chain with D36E, E72K
B26: DOMAIN_7895 (protein, listed as Patagioenas fasciata)
chain: QDAVTFKDVAIYFSPEEWVRLSAGQRELYQEVMLDNYELVTSLDRECKLLYKMDPEEEPCEGVPCRGVDSGALDNSSTSAC
B27: DOMAIN_7925 (protein, listed as Gallus gallus)
chain: B7 chain with Q9E, S43W, P46S, H50P, M53G, V54L, D68G, V75M
B28: DOMAIN_8013 (protein, listed as Callipepla squamata)
chain: LQEPVSFEEVAVYFSREEWALLDPAQRALYRDVMLETYECVASLAPLPAPKPMVISLLEEGEEPWVPDVGSPEAVAGDVSP
B29: DOMAIN_8014 (protein, listed as Callipepla squamata)
chain: B6 chain with W29R, D30H, G47A, V67E, P70R, E71Q
B30: DOMAIN_8041 (protein, listed as Dipodomys ordii)
chain: APGSVTFRDVAIDFSQEEWKWLQPAQRDLYRCVMLENYGHLVSLGLCISKPDVVSLLEQGKEPWLGKGGVNRDLFSVSDGK
B31: DOMAIN_8054 (protein, listed as Cavia porcellus)
chain: RPRALKFADVAVYFSLEEWGCLRPAQRTLYRNVMRETYGHLGALGCAGPKPALISWLERNTDDWEPAALDPQEYPRGVTVQ
B32: DOMAIN_8148 (protein, listed as Cricetulus griseus)
chain: KPELVSFEDVAVYFSPHEWGCLRPAQRALYREVMRETYGLLGALGFPGPKPALISWMEQESEAWSPAAQDPAEGESLGGAL
B33: DOMAIN_8151 (protein, listed as Cricetulus griseus)
chain: EQGLVSFEDVAVDFTWQEWQELDAAQRTLYRDVMLENYSSLVSLGHCVTKPELIFRLEHGFGPWSIGETSLWNLPGVLEVP
B34: DOMAIN_8154 (protein, listed as Cricetulus griseus)
chain: KVKQFSFQSLLTFKDLAINFSKEEWEYLNTSQKDLYKDVMLENYSNLVSVGLSESKPELVTCLEQNKEPWMVHIVEAEGLE
B35: DOMAIN_8167 (protein, listed as Mus musculus)
chain: MESVSFEDVAVKFTQEEWAVLDPSQKKLYKDVMQETLKNLASIGNKSGKQKVINEYGKLWRKLSSHLAGKFSDYNENHQCA
B36: DOMAIN_8179 (protein, listed as Mesocricetus auratus)
chain: SQVSVTFEDVAVLFTRDEWKKLDHSQRSLYREVMLENYSNLASLGFPFAKPEMISVLQQGEEPWKVEKRSLGFSLGCNSSL
B37: DOMAIN_8182 (protein, listed as Mus caroli)
chain: QASVTFEDVAVRFTQEEWALLDPSQKILYGDVMQETYRNLTSVGINWECWDLEAYFRSLERNLRVQLVKRDCELKNNDPCG
B38: DOMAIN_8216 (protein, listed as Cricetulus griseus)
chain: MLSFWDVAIEFSPEERECLDPAQWSLYRDVMLENYSNLLFLGLAVPKPHLVTFLEQRQESSGVKRQAAATVHPGRIPNDYN

Test system: HBEGF locus
Assay type: cell-based, human
[1] = high-throughput screen of dXR repression of the HBEGF gene, change in abundance of each domain in the library before and after diphtheria toxin selection
[2] = repressor domain in dXR, repression of the HBEGF gene, abundance of domain in library after vs before diphtheria toxin selection

Row | Molecule | Log2 (fold change) [1] | Log2 (fold change) [2]
1 | B1 | 3.3168 | –
2 | B2 | 2.2407 | –
3 | B3 | 3.3653 | –
4 | B4 | 3.2102 | –
5 | B5 | 3.5825 | –
6 | B6 | 3.5294 | –
7 | B7 | 3.343 | –
8 | B8 | 2.8279 | –
9 | B9 | 2.4415 | –
10 | B10 | 2.9074 | –
11 | B11 | 3.1808 | –
12 | B12 | 2.597 | –
13 | B13 | 3.1707 | –
14 | B14 | 3.0452 | –
15 | B15 | 3.4086 | –
16 | B16 | 2.9036 | –
17 | B17 | – | 3.6727
18 | B18 | – | 3.3772
19 | B19 | – | 2.7348

Row | Molecule | Log2 (fold change) [1] | Log2 (fold change) [2]
20 | B20 | – | 3.7965
21 | B21 | – | 3.4946
22 | B22 | – | 2.8111
23 | B23 | 3.0403 | –
24 | B24 | – | 2.9383
25 | B25 | – | 3.124
26 | B26 | – | 3.2254
27 | B27 | – | 3.3919
28 | B28 | – | 3.9783
29 | B29 | – | 3.7425
30 | B30 | – | 3.6568
31 | B31 | – | 3.5889
32 | B32 | – | 3.6904
33 | B33 | – | 3.1527
34 | B34 | – | 2.8774
35 | B35 | – | 3.9362
36 | B36 | – | 3.0623
37 | B37 | – | 2.2411
38 | B38 | – | 3.1747
